# US11707533B2, “Antibody-drug conjugate comprising antibody against human ROR1 and use for the same” (LegoChem Biosciences, Inc., priority 2019, dated 2023)
# Numbering of substitutions follows the chain as printed.
# B1: BA6 M1: anti-ROR1 antibody clone, VH SEQ ID NO 99, VL SEQ ID NO 54; IgG chains SEQ ID NOs 101 and 70 (antibody)
# heavy: EVQLLESGGGLVQPGGSLRLSCAASGFTFSNYDMSWVRQAPGKGLEWVSAIYHSGSSKYYADSVKGRFTISRDNSKNTLYLQMNSLRAEDTAVYYCARGGNAAWDTGFDYWGQGTLVTVSS[human IgG1 constant region not printed]
# light: QSVLTQPPSASGTPGQRVTISCSGSSSNIGSNDVSWYQQLPGTAPKLLIYYDNNRPSGVPDRFSGSKSGTSASLAISGLRSEDEADYYCGAWDDSLSGYVFGGGTKLTVLGQPKAAPSVTLFPPSSEELQANKATLVCLISDFYPGAVTVAWKADSSPVKAGVETTTPSKQSNNKYAASSYLSLTPEQWKSHRSYSCQVTHEGSTVEKTVAPAECS
# B2: A2F2 M1: anti-ROR1 antibody clone, VH SEQ ID NO 98, VL SEQ ID NO 52; IgG chains SEQ ID NOs 100 and 68 (antibody)
# heavy: EVQLLESGGGLVQPGGSLRLSCAASGFTFSDYYMSWVRQAPGKGLEWVSSISPDASNTYYADSVKGRFTISRDNSKNTLYLQMNSLRAEDTAVYYCAKNLRAFDYWGQGTLVTVSS[human IgG1 constant region not printed]
# light: B1 light with S9P, D33T, S35Y, Y51A, D52N, N53S, N54Q, A91S, D94Y
# B3: D2B12: anti-ROR1 antibody clone, VH SEQ ID NO 50, VL SEQ ID NO 58; IgG chains SEQ ID NOs 66 and 74 (antibody)
# heavy: EVQLLESGGGLVQPGGSLRLSCAASGFTFSNYDMSWVRQAPGKGLEWVSSISPSSGSSIYYADSVKGRFTISRDNSKNTLYLQMNSLRAEDTAVYYCAKAPGWCQAPSCYYDNAMDVWGQGTLVTVSS[human IgG1 constant region not printed]
# light: B1 light with S31N, Y51D, N53S, N54Q
# B4: A2F3: anti-ROR1 antibody clone, VH SEQ ID NO 45, VL SEQ ID NO 53; IgG chains SEQ ID NOs 61 and 69 (antibody)
# heavy: EVQLLESGGGLVQPGGSLRLSCAASGFTFSSYDMSWVRQAPGKGLEWVSWISPGGGSKYYADSVKGRFTISRDNSKNTLYLQMNSLRAEDTAVYYCARVNGRFDYWGQGTLVTVSS[human IgG1 constant region not printed]
# light: B1 light with S31N, D33N, Y51A, N53S, N54H, G90A, A91T, D94Y
# B5: DG6: anti-ROR1 antibody clone, VH SEQ ID NO 49, VL SEQ ID NO 57; IgG chains SEQ ID NOs 65 and 73 (antibody)
# heavy: EVQLLESGGGLVQPGGSLRLSCAASGFTFSDYDMSWVRQAPGKGLEWVSVISPDGGSIYYADSVKGRFTISRDNSKNTLYLQMNSLRAEDTAVYYCARDVVECNMNPCSYDNAMDVWGQGTLVTVSS[human IgG1 constant region not printed]
# light: B1 light with D33Y, Y51D, N53S, N54H
# B6: A2F2: anti-ROR1 antibody clone, VH SEQ ID NO 44, VL SEQ ID NO 52; IgG chains SEQ ID NOs 60 and 68 (antibody)
# heavy: B2 heavy with A55G
# light: B1 light with S9P, D33T, S35Y, Y51A, D52N, N53S, N54Q, A91S, D94Y
# B7: CC9: anti-ROR1 antibody clone, VH SEQ ID NO 47, VL SEQ ID NO 55; IgG chains SEQ ID NOs 63 and 71 (antibody)
# heavy: EVQLLESGGGLVQPGGSLRLSCAASGFTFSSYDMSWVRQAPGKGLEWVSGISHGSGNKYYADSVKGRFTISRDNSKNTLYLQMNSLRAEDTAVYYCAKRLSLRRRPSYYSDNAMDVWGQGTLVTVSS[human IgG1 constant region not printed]
# light: B1 light with S23T, S31N, D33A, S35N, N53S
# Molecular target: T1, recombinant human ROR1-Fc (Homo sapiens, UniProt Q01973)
# T1 construct: made in house; host or cells: HEK 293E
# Assay: Monoclonal phage antibody (scFv) screening ELISA on ROR1-Fc
# Type: binding
# Conditions: monoclonal phage scFv supernatant
# Method: Thereafter, the ELISA method was used as follows to select clones expressing monoclonal soluble scFv binding to ROR1-Fc antigen (Steinberger Rader and Barbas III 2000 Phage display vectors In: Phage Display Laboratory Manual 1sted Cold Spring Harbor Laboratory Press NY USA pp 119-1112). Specifically, 100 ng per well of recombinant human ROR1-Fc prepared in Embodiment 1-1 or FBMA-Fc was placed in a 96-well microtiter plate (Nunc-Immuno Plate, NUNC, USA), which was coated overnight at 4° C. BCMA-Fc is the protein used as a negative control, a recombinant protein where the extracellular domain of human BCMA protein is linked to human Fc. 200 μL each of 3% BSA was placed in each well, and blocked for 2 hours at 37° C.
# The monoclonal phage supernatant was prepared by mixing 1:1 with 3% BSA, and 100 μL each of this mixture was loaded into the wells and reacted for 2 hours at 37° C. After washing 5 times with 300 μL PBST, anti-HA HRP binding antibody was added, reacted for 1 hour at 37° C., then washed 5 times with PBST. 100 μL TMB (Tetramethylbenzidine, Sigma, T0440) was added for color development, and then 50 μL 1N H2SO4 was added to stop the reaction. Absorbance was measured at 450 nm and 650 nm, and clones where the absorbance at 450 nm and 650 nm was 10 or higher when coated with 1 ? /mL ROR1 were screened (FIG. 1)
# T1 sequence (Q01973 30-406): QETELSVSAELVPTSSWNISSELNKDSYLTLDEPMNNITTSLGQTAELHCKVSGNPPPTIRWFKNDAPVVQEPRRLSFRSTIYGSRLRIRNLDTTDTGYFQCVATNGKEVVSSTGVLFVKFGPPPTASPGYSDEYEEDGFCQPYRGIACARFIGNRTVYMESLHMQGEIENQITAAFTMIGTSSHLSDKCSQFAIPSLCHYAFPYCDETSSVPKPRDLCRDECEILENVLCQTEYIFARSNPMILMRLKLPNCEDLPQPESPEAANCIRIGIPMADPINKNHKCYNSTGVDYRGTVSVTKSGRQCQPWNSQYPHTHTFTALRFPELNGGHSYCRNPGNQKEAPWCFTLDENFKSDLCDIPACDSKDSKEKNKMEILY
row,Molecule,binding to recombinant human ROR1 protein
1,B1,binding
2,B2,binding
3,B3,binding
4,B4,binding
5,B5,binding
6,B6,binding
7,B7,binding

# System: human mantle cell lymphoma cell line JeKo-1
# Assay: Cancer growth suppression efficacy of anti-ROR1 IgG antibody in mouse tumor xenograft model
# Type: in vivo
# Conditions: Day 16; 10 mg/kg peritoneally twice a week, 5 administrations; JeKo-1 xenograft in SCID mice
# Method: Human cancer xenograft mice were prepared by transplanting 1×10^7 cells/head of the ROR1-expressing human mantle cell lymphoma cell line JeKo-1 to severe combined immunodeficiency mice (SCID). After xenograft, when tumor size reached 170 mm^3 on average (Day 1), the mice were divided into groups, and 5 types of anti-ROR-1 antibody were peritoneally injected into the mice using a 1 mL syringe twice a week at 10 mg/kg for a total of 5 administrations (Days 1, 4, 7, 10 and 14). The negative control group was peritoneally administered 10 mg/kg each of human IgG1 (InVivoPlus human IgG1 isotype control, BioXCell, BP0297) having a structure similar to that of ROR-1 antibody twice a week for a total of 5 administrations. The size of the tumors grafted to the mice and the weight of the mice were measured immediately before initial administration (Day 1), immediately before administration on each administration date thereafter, and at two days after final administration (Day 16).
row,Molecule,% tumor growth inhibition (% TGI) compared to the human IgG1 antibody (HuIgG1) negative control [%]
1,B6,289
2,B7,294

# Molecular target: T2, cell surface-expressed ROR1 (JeKo-1 cell line) (Homo sapiens, UniProt Q01973)
# T2 construct: reacted with a cell line (JeKo-1) overexpressing ROR1; endogenous in cells; host or cells: JeKo-1
# Assay: Monoclonal phage antibody (scFv) flow cytometry on JeKo-1
# Type: binding
# Conditions: monoclonal scFv supernatant
# Method: Next, flow cytometry was used to screen clones binding to cell lines expressing ROR1. Specifically, 100 ? of the monoclonal scFv supernatant was reacted with a cell line (JeKo-1) overexpressing ROR1, then washed two times with PBS. After reacting with anti-HA-FITC antibody (Sigma, H7411) at 4° C. for 30 minutes, and washing twice with PBS then suspending in 200 ? PBS, a FACSCalibur flow cytometer (BD Bioscience) was used to screen clones binding to the JeKo-1 cell line (FIG. 2)
# T2 sequence (Q01973 30-937): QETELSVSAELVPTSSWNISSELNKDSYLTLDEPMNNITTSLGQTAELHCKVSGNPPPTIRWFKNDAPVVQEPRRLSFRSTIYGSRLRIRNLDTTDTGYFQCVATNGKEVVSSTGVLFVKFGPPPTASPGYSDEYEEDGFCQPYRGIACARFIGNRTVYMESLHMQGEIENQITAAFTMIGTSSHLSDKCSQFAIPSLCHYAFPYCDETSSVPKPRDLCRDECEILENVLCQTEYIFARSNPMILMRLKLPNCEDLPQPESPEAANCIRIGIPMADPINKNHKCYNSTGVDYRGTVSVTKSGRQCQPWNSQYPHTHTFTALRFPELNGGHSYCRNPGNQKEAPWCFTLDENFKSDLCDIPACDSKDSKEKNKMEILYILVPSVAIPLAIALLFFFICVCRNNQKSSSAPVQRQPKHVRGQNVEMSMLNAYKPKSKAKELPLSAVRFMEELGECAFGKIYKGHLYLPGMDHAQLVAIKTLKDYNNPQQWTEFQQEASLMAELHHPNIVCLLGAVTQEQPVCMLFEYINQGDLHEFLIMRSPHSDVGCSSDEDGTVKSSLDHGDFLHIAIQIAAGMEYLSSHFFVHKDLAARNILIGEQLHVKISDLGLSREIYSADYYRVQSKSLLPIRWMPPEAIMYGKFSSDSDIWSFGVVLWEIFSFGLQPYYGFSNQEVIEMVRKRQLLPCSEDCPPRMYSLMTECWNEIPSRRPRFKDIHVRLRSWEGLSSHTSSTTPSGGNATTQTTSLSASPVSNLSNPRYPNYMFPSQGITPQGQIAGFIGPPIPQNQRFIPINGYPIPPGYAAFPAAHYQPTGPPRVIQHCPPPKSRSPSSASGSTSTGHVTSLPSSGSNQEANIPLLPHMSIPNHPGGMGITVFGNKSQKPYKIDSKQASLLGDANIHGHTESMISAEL
row,Molecule,binding to cell lines expressing ROR1
1,B1,binding
2,B2,binding
3,B3,binding
4,B4,binding
5,B5,binding
6,B6,binding
7,B7,binding

# Molecular target: T3, recombinant human ROR1-His (Homo sapiens, UniProt Q01973)
# T3 construct: purchased Sino Biological 13968-H08H
# Assay: Octet measurement of affinity of anti-ROR1 IgG antibody to ROR1
# Type: binding
# Conditions: 1:1 fitting, 30° C.
# Method: A 96-well black microplate (greiner bio one) was mounted on a biosensor tray case, and 200 ? 10×KB or DW was added to each of 8 wells. Then Anti Penta His biosensors or 8 AR2G biosensors (ForteBio, USA) were inserted to hydrate for 10 minutes. 600 ? of the assay samples were diluted 2-fold or 3-fold to the appropriate assay concentrations, using 1×KB or 10×KB to 30 to 0.021 nM. To immobilize the antigen, recombinant human ROR1-His (Sino Biological, 13968-H08H) was diluted to 1 ? /ML with 10×KB or Sodium Acetate pH5 buffer. Immobilization was fixed at a threshold of 0.3 nm in the loading step. The association assay was carried out for 3 to 10 minutes, and the dissociation assay was carried out for 20 minutes. According to the Octet program template, the buffer was placed in a new 96-well black microplate according to order. As Baseline1, 200 ? 10×KB or DW was placed. Then 200 ? each of 1 ? /mL of the antigen to be loaded, the ROR1-HIS protein, was added. As Baseline2, 200 ? 10×KB or 1×KB was placed. Then to each well 30 to 0.021 nM of the diluted antibody and 200 ? each of 10×KB buffer or 1×KB corresponding to a reference blank was added. The temperature of the test plate was fixed at 30° C. After all of the samples were introduced, the equipment was started, and after the assay was completed, results were uploaded to the Octet Analysis 90 software, with KD values analyzed through 1:1 fitting. By obtaining KD values through the Octet assay method, it was confirmed that the anti-ROR1 antibody had strong binding potential to ROR1 antigen.
# T3 sequence (Q01973 30-406 limits assumed): as the sequence (Q01973 30-406) above
Molecule,koff [s⁻¹],kon [M⁻¹ s⁻¹]
B3,0.000361,450000
B4,3.31e-05,1.38e+06
B5,0.000338,2.23e+06
B6,0.000119,1.53e+06
B7,0.000551,731000
